PubChem BioAssay AID1460 (National Center for Advancing Translational Sciences (NCATS), 2008)
About 5,800 (2.1%) of roughly 270,000 compounds were called active. The inconclusive results got no clear call from the source; some entries with a clear call stand among them for comparison. Calls follow the shape of the dose curve; as a rule, active = well fitted inhibition curve with a large enough effect; inconclusive = small, poorly fitted or top-dose-only effect; inactive = flat fitted curve, though single readings scatter. Potencies beside an inconclusive call are fits to weak or partial responses and may not hold up.

What follows are molecules tested against Microtubule-associated protein tau (Homo sapiens) (UniProt P10636) (assay: qHTS for Inhibitors of Tau Fibril Formation, Thioflavin T Binding). Conditions: recombinant tau K18 P301L (four-repeat tau fragment), heparin-induced fibrillization, ThT fluorescence; series mostly up to 57.4 µM.
Outline: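 Recombinant human tau K18 fragment […] carrying P301L, 15 uM unlabeled plus 0.24 uM Alexa 594-labeled, was fibrillized with 20 uM heparin in 100 mM sodium acetate pH 7 for 6 hr at 37 C; 30 uM ThT fluorescence read after 1 hr.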
Also: nearly all actives have a fitted effect of over 55% in size.
Potency is read from the fitted curve at half-maximal effect; tags tell the direction and shape of the fitted curve.

Sequence of UniProt P10636 (P10636 whole entry, looked up, the tested form may be a part): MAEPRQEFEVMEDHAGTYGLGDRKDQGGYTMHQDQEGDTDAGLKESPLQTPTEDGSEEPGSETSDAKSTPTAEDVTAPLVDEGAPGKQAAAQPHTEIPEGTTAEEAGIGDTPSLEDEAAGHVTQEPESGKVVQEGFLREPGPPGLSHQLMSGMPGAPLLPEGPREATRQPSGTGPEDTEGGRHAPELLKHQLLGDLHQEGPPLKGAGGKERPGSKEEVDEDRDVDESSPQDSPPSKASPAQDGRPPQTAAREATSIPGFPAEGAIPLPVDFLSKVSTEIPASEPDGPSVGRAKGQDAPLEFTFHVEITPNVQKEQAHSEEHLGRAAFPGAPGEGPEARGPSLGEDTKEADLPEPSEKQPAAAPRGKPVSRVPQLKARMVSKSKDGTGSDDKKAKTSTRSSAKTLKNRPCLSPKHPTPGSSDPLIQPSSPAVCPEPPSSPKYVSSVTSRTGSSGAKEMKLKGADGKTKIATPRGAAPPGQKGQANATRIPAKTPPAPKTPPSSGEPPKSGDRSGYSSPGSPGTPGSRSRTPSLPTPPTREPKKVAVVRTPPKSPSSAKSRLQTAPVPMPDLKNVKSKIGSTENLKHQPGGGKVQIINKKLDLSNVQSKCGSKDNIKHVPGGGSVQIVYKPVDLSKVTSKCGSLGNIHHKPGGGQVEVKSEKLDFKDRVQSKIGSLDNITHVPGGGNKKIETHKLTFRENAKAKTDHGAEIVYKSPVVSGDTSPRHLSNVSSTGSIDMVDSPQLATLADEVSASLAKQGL

| Structure (SMILES) | Potency |
| --- | --- |
| Clc1ccc2nc(CN3CCCCC3)cn2c1 | inactive |
| CCN1C(=O)c2cccc3c(S(=O)(=O)NCc4cccnc4)ccc1c23 | inactive |
| Cc1ccc(S(=O)(=O)N/N=C/c2cccn2-c2ccc(Cl)cc2)cc1 | inconclusive: 28.2 µM [inhibitor, single point] |
| COc1ccc(C)cc1NS(=O)(=O)c1ccc2c(c1)[C@H]1C=CC[C@H]1[C@@H](c1cccc(Cl)c1)N2 | inconclusive: 17.8 µM [inhibitor, partial curve] |
| CC1(O)CC2C(CC1O)C2(C)C (stereo not given) | inactive |
| Cc1ccc(C)c(N2CCN(C(=O)CCS(=O)(=O)c3cccc4nonc34)CC2)c1 | inconclusive: 20 µM [inhibitor, single point] |
| N/C(=N\OC(=O)c1cnn(-c2ccccc2)c1C(F)(F)F)c1ccc(C(F)(F)F)cc1 | inconclusive: 7.94 µM [inhibitor, partial curve] |
| CS(=O)(=O)c1ccc(Cn2c3c(c4cc(F)cc(F)c42)CCC[C@H]3CC(=O)O)cc1 | inconclusive: 39.8 µM [inhibitor, single point] |
| O=C(Nc1ccc2ccccc2c1)Nc1ccc2snnc2c1 | inconclusive: 28.2 µM [activator, single point] |
| Cc1cc(OCC(=O)Nc2ccc(N3CCCC3)cc2)cc(C)c1Cl | inconclusive: 12.6 µM [inhibitor, partial curve] |
| Cc1cc(C)c2nc(-c3ccco3)cc(C(=O)O)c2c1 | inconclusive: 20 µM [inhibitor, partial curve] |
| COC(=O)CCCCCN1C(=O)/C(=C\c2ccncc2)SC1=S | inconclusive: 31.6 µM [inhibitor, partial curve, poor fit] |
| Cc1ccc(-c2nc3ncccc3o2)cc1NC(=O)COc1ccc(C(C)C)cc1 | inconclusive: 25.1 µM [inhibitor, partial curve] |
| Cc1ccc(-c2[nH]nc3c2C(c2cccnc2)C(C#N)=C(N)O3)cc1 (stereo not given) | inactive |
| C=CCn1c(O)c(N=NC(=O)CNC(=O)/C=C/c2ccco2)c2ccccc21 | active: 20 µM |
| Cc1c(Cl)cccc1-c1ccc(C(=O)N2CCN(c3ccc([N+](=O)[O-])cc3)CC2)o1 | inconclusive: 1 µM [inhibitor, full curve] |
| CN1C(=S)SC(N2OC3C(=O)N(c4ccccc4)C(=O)C3C2c2ccccc2)C1(C)C (stereo not given) | inactive |
| Cc1c(C(=O)NCCc2ccc3c(c2)OCCO3)oc2ccccc12 | inconclusive: 28.2 µM [inhibitor, partial curve] |
| CC(=O)c1ccc(N=Nc2ccc(N(C)C)cc2)cc1 | active: 1 µM |
| CCc1cc2c(cc3c(=O)n(CCCC(=O)NCc4ccccc4Cl)nc(CC)n32)s1 | inconclusive: 17.8 µM [inhibitor, partial curve] |
| CCOC(=O)c1c(C)oc2ccc(NS(=O)(=O)c3ccc(C(=O)O)cc3)cc12 | inactive |
| Brc1c(-c2ccccc2)nc2n1Cc1ccccc1-2 | inconclusive: 5.62 µM [inhibitor, full curve] |
| CSc1ccccc1NC(=O)COc1ccc(Cl)cc1C | inconclusive: 15.8 µM [inhibitor, partial curve] |

| Structure (SMILES) | Potency |
| --- | --- |
| CCSc1nnc(NC(=O)CSC2=NCCS2)s1 | inconclusive: 17.8 µM [inhibitor, partial curve] |
| CC1Cc2ccccc2N1C(=O)CSc1nc(-c2ccccc2)cs1 (stereo not given) | inconclusive: 44.7 µM [inhibitor, single point] |
| COc1ccc(C(=O)Nc2ccc(NC(=O)c3cccs3)cc2)cc1[N+](=O)[O-] | inconclusive: 0.891 µM [inhibitor, partial curve] |
| CCCNC(=O)c1noc2c1CCc1cc(OC)ccc1-2 | inconclusive: 11.2 µM [inhibitor, partial curve] |
| Cc1ccc([N+](=O)[O-])cc1N/C=C1\CCCCC1=O | inconclusive: 2.82 µM [inhibitor, full curve] |
| CCCn1nnc(NC(=O)/C=C/c2ccco2)n1 | inactive |
| N=C(N)S/C=C\C(=O)O | active: 28.2 µM |
| Cc1nc2nc(-c3ccc(Cl)cc3)cn2nc1C | inconclusive: 0.794 µM [inhibitor, full curve] |
| Cc1cccc(N=Nc2ccc(O)c3ncccc23)c1 | active: 2 µM |
| COc1cccc(N2CCN(C3C(=O)c4ccccc4N3C(C)=O)CC2)c1 (stereo not given) | inactive |
| COc1cccc(C2C(C(=O)Nc3ccc(C)cc3C)=C(C)Nc3c(C(=O)Nc4cccc(C)c4)cnn32)c1OC (stereo not given) | inactive |
| c1csc(-c2noc(COc3ccc4c(c3)CCCC4)n2)c1 | inconclusive: 5.62 µM [inhibitor, partial curve] |
| COc1ccc(OC)c(S(=O)(=O)Nc2ccc(O)c(Sc3ncn[nH]3)c2)c1 | inactive |
| C=CCNc1oc(-c2ccc(OC)cc2)nc1C#N | inconclusive: 17.8 µM [inhibitor, single point] |
| Cc1c(NC(=O)/C(C#N)=C/c2ccc(-c3cc(Cl)ccc3Cl)o2)c(=O)n(-c2ccccc2)n1C | inconclusive: 14.1 µM [inhibitor, partial curve] |
| Cc1c2cnn(CC(=O)NC(C)C)c(=O)c2c(C)n1Cc1ccccc1Cl | inconclusive: 3.55 µM [inhibitor, partial curve] |
| CC(C)(Cc1ccc(O)cc1)NC(=O)CC(=O)N=Nc1c(O)[nH]c2ccc(Br)cc12 | inconclusive: 12.6 µM [inhibitor, partial curve] |
| CCOC(=O)N1CCc2c(sc3c2c(=O)n(-c2ccc(CC)cc2)c(=O)n3CC(=O)c2ccc(F)cc2)C1 | inactive |
| O=C1CCC(=O)N1c1ccc(NCCc2cccc(F)c2)c([N+](=O)[O-])c1 | inconclusive: 10 µM [inhibitor, partial curve] |
| O=C(CCNC(=O)c1ccccc1)N/N=C/c1ccc([N+](=O)[O-])cc1 | inconclusive: 20 µM [inhibitor, partial curve] |
| O=C(N/N=C/c1ccc2c(c1)OCO2)c1sc2cccc(Cl)c2c1Cl | inconclusive: 0.562 µM [inhibitor, full curve] |
| Cc1coc2c(C)c3oc(=O)c(CCC(=O)NCCc4ccc(Cl)cc4)c(C)c3cc12 | inactive |
